Data: PubChem BioAssay AID588342 (National Center for Advancing Translational Sciences (NCATS), 2011)
About 25,000 (6.9%) of roughly 360,000 compounds were called active. The inconclusive results got no clear call from the source; some entries with a clear call stand among them for comparison. The call rests on the fitted dose curve; in most records, active means well fitted inhibition curve with a large enough effect; inconclusive means small, poorly fitted or top-dose-only effect; inactive means flat fitted curve, though single readings scatter. Potencies beside an inconclusive call are fits to weak or partial responses and may not hold up.

Biological target: Luciferin 4-monooxygenase (Photinus pyralis) (UniProt P08659)
Chain of UniProt P08659 (P08659 whole entry, looked up): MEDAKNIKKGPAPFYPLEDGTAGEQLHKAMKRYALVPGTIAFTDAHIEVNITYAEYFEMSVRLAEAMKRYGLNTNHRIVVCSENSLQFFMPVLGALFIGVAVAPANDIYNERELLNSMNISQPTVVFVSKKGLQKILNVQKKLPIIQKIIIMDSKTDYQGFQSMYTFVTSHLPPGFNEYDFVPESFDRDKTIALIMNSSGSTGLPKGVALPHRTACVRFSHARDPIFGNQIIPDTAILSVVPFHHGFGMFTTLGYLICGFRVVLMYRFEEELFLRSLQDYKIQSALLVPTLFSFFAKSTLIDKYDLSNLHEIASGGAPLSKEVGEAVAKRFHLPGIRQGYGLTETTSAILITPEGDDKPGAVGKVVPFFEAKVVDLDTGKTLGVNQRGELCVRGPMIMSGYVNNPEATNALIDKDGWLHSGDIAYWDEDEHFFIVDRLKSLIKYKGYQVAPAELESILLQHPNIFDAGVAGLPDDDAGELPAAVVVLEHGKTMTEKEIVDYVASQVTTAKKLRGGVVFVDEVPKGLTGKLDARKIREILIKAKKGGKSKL
Assay: qHTS profiling assay for firefly luciferase inhibitor/activator using purifed enzyme and Km concentrations of substrates (counterscreen for miR-21 project); further: nearly all actives have a fitted effect of over 55% in size
Conditions: purified FLuc, luminescence inhibition; series mostly up to 57.5 µM
Outline: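 Purified P. pyralis luciferase (10nM final) with 10uM D-luciferin and 10uM ATP (Km levels) in 50mM Tris acetate pH 7.5, 10mM Mg acetate, 0.01% Tween-20, 0.05% BSA; qHTS 6-point titration, ~60 µM downward; luminescence read.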
Potency means the concentration at half of the fitted maximal effect; tags describe the fitted curve by direction and shape.

SMILES	Potency
COc1cccc(-c2cc(C(F)(F)F)n3ncc(C(=O)N4CCc5ccccc5C4)c3n2)c1	inactive
COc1cccc(-c2csc(N3CCN(C(=S)Nc4ccccc4)CC3)n2)c1	inconclusive: 15.1 µM [inhibitor, partial curve, poor fit]
O=C(Nc1ccc(Cc2ccc(NC(=O)N3CCOCC3)cc2)cc1)N1CCOCC1	inconclusive: 15.1 µM [inhibitor, partial curve, poor fit]
COc1cccc(CN2CC(C(=O)N3CCOCC3)CCC2=O)c1 (stereo not given)	inconclusive: 37.9 µM [inhibitor, single point]
OC(COc1ccc2ccccc2c1)Cn1cncn1 (stereo not given)	inconclusive: 33.8 µM [inhibitor, partial curve, poor fit]
CCOC(=O)c1ccc(NC(=O)c2oc3c(c2C)-c2nn(Cc4ccccc4Cl)cc2CC3)cc1	inactive
CC(C)(C)c1ccc(C(=O)NNc2ncccc2-n2cccc2)cc1	inactive
CC1CCC(NC(=O)CSc2ccc(S(=O)(=O)N(C)C)cn2)CC1 (stereo not given)	inactive
C(=N/N1CCN(c2ccccc2)CC1)/c1cccs1	inconclusive: 16.9 µM [inhibitor, partial curve]
Cc1cc2nc(-c3ccc(NC(=O)c4cccnc4)cc3)oc2cc1C	active: 6.75 µM
CCN1CCN(C2=NC(=O)/C(=C/c3ccc(C)o3)S2)CC1	inconclusive: 23.9 µM [inhibitor, partial curve, poor fit]
CC(C)(C)c1ccc(NC(=O)CCNC(=O)c2ccco2)cc1	inconclusive: 30.1 µM [inhibitor, partial curve, poor fit]
O=C(Nc1ccc(-c2nc3cccnc3s2)cc1)c1cccnc1Cl	active: 1.69 µM
Brc1ccc2c(c1)C(c1ccc(N3CCOCC3)cc1)=NNC(c1cccs1)=N2	inconclusive: 23.9 µM [inhibitor, partial curve, poor fit]
COc1ccc(OCC(=O)N/N=C(\C)c2cccs2)cc1	inconclusive: 37.9 µM [inhibitor, single point]
CCSc1nnc(NC(=O)c2cc(=O)c3cc(C)ccc3o2)s1	inconclusive: 33.8 µM [inhibitor, single point]
Cc1cccc(C(=O)Nc2cccc(OC(=O)c3cccc(C)c3)c2)c1	inactive
O=C(/C=C/c1cccs1)NC(=S)NNC(=O)c1ccccc1O	inconclusive: 23.9 µM [inhibitor, partial curve, poor fit]
Oc1cc2c(cc1O)C1c3ccc(O)c(O)c3OCC1(O)C2 (stereo not given)	active: 8.49 µM
COc1cccc(N2CC(NC(=O)COc3ccccc3F)CC2=O)c1 (stereo not given)	inactive
CCOc1ccc(NC(=O)c2cnc3sc(N4CCOCC4)nn3c2=O)cc1	inconclusive: 13.5 µM [inhibitor, partial curve, poor fit]
Cc1ccccc1OCC(O)CN1CCN(CCN2C(=O)c3cccc4cccc(c34)C2=O)CC1 (stereo not given)	inactive
CCc1ccc(NC(=O)Cc2ccc(OC)cc2)cc1	inconclusive: 16.9 µM [inhibitor, partial curve]
COc1ccc(Nc2oc(/C=C/c3ccccc3OC)nc2C#N)cc1	inconclusive: 5.36 µM [inhibitor, single point]

SMILES	Potency
Cc1ccc(OCCCN2CCOCC2)c([N+](=O)[O-])c1	active: 21.3 µM
CCN1CCN(c2oc(COc3ccc(-c4ccccc4)cc3)nc2C#N)CC1	inconclusive: 23.9 µM [inhibitor, partial curve, poor fit]
COCCN(C(=O)CC1CCCCC1)c1c(N)n(CC(C)C)c(=O)[nH]c1=O	inactive
O=C(COC(=O)Cn1cnc2ccccc21)Nc1cc2c(cc1Cl)C(=O)c1ccccc1C2=O	inconclusive: 21.3 µM [inhibitor, partial curve]
Cc1ccccc1Nc1nc(N)c(C(=O)c2ccccc2Cl)s1	inconclusive: 23.9 µM [inhibitor, partial curve, poor fit]
COc1ccccc1Oc1nc(C)c(C(C)=O)cc1C#N	inactive
Cc1cc2oc(C(=O)N(Cc3ccc(N(C)C)cc3)Cc3ccco3)c(C)c2cc1Cl	inactive
Cc1ccc(C(=O)Nc2cccc3[nH]c(C(F)(F)F)nc23)cc1	inconclusive: 19 µM [inhibitor, partial curve, poor fit]
CCCCc1ccc(NC(=O)CSc2nc(=O)[nH]c3c2CCCC3)cc1	inconclusive: 37.9 µM [inhibitor, partial curve, poor fit]
CCOc1ccc(-c2csc3nc[nH]c(=O)c23)cc1	inconclusive: 23.9 µM [inhibitor, single point]
O=C(Nc1ccccc1)Nc1nnc(SCC(=O)N2CCCCC2)s1	inconclusive: 21.3 µM [inhibitor, partial curve]
CC1CC1c1ccc(/C=C(\C#N)C(=O)Nc2ccc(Cl)cc2Cl)o1 (stereo not given)	inconclusive: 26.9 µM [inhibitor, single point]
Cc1cc(C(=O)OCC(=O)c2c(N)n(C)c(=O)n(C)c2=O)c(C)n1-c1ccccc1	inconclusive: 3.01 µM [inhibitor, partial curve, poor fit]
COc1cccc(N=CC=C2OC(C)(C)C(C)(C)O2)c1	inconclusive: 13.5 µM [inhibitor, partial curve, poor fit]
CC(C)(C)C1(C)OC(=O)C(=Cc2ccc(OCC(=O)Nc3ccccc3)cc2)C(=O)O1 (stereo not given)	inconclusive: 23.9 µM [inhibitor, partial curve]
Cc1ccc2c(c1)C(=O)OC(C(=O)Nc1ccccc1C(=O)O)C2 (stereo not given)	inconclusive: 19 µM [inhibitor, partial curve]
CC(=O)c1ccc(OC(=O)CCc2nc3ccccc3s2)cc1	inactive
O=C(Cc1ccc(Cl)cc1)N/N=C/c1cccc(O)c1	inactive
Fc1ccc(-c2nnc(CSc3nnc(-c4ccc5c(c4)OCO5)o3)o2)cc1	inconclusive: 26.9 µM [inhibitor, partial curve, poor fit]
O=C(O)c1cccnc1SCc1ccccc1Cl	inconclusive: 26.9 µM [inhibitor, single point]
Cc1ccnc(NS(=O)(=O)c2ccc(NC(=O)c3ccc(C)c(C)c3)cc2)n1	inconclusive: 13.5 µM [inhibitor, partial curve, poor fit]
CCn1cc(C(=O)N2CCN(c3cccc(Cl)c3)CC2)c(=O)c2cc(S(=O)(=O)N3CCC(C)CC3)ccc21	inconclusive: 8.49 µM [inhibitor, partial curve, poor fit]
CCOC(=O)CCc1c(C)c2ccc(OCc3cc([N+](=O)[O-])ccc3OC)cc2oc1=O	inactive
COCCn1c(C)cc(/C=C2\NC(=S)N(C)C2=O)c1C	inconclusive: 33.8 µM [inhibitor, single point]

SMILES	Potency
CCN1C(=O)c2ccc(C(=O)Nc3ccc4c(c3)OCO4)cc2C1=O	active: 2.69 µM
COc1ccc(CC(=O)N(C)CC(=O)Nc2ccccc2C(F)(F)F)cc1S(=O)(=O)N1CCOCC1	inactive
COc1ccc(-n2cc(C(=O)O)c(=O)cc2C)cc1	inactive
O=C1CN(C(=O)COC(=O)c2ccccc2Br)c2ccccc2N1	inactive
Nc1cc(Cl)ccc1C(=O)OCC(=O)N1CCOCC1	inconclusive: 42.6 µM [inhibitor, partial curve, poor fit]
Cc1nc2cc(C(=O)OCC(=O)N(CC(C)C)C3CCS(=O)(=O)C3)ccc2n1-c1ccccc1 (stereo not given)	inconclusive: 37.9 µM [inhibitor, partial curve, poor fit]
O=C(Oc1c(Cl)cc(Cl)c2cccnc12)c1cccs1	inconclusive: 37.9 µM [inhibitor, single point]
O=C(c1ccccc1)c1c[nH]c2ccccc12	inconclusive: 15.1 µM [inhibitor, partial curve]
O=C1C(C2=NC(C(=O)O)C3C(=O)N(c4ccccc4)C(=O)C23)=C(O)c2ccccc21 (stereo not given)	active: 12 µM
Cc1cccc(NC(=O)c2nc[nH]c2C(=O)N2CCN(C(=O)OC(C)(C)C)CC2)c1	inactive
COc1ccc(-c2cc(C(=O)NN)[nH]n2)cc1	inconclusive: 37.9 µM [inhibitor, partial curve, poor fit]
CC(/C=C/c1ccccc1)=N\NC(=O)CSc1ccccn1	inconclusive: 23.9 µM [inhibitor, partial curve, poor fit]
S=C(NCCc1ccccn1)NC1CC2CCC1C2 (stereo not given)	inconclusive: 21.3 µM [inhibitor, single point]
COc1ccc(/C(C)=N/NC(=O)CNC(=O)c2cccs2)cc1OC	inconclusive: 19 µM [inhibitor, partial curve]
CC(=O)Nc1cccc(NC(=O)CSc2ccc(-c3ccco3)nn2)c1	inconclusive: 33.8 µM [inhibitor, single point]
Fc1ccc(NCc2nnc3n2CCCCC3)cc1Cl	inactive
C=CCn1c(COc2ccc(CC)cc2)nnc1SCC(=O)NC1CCS(=O)(=O)C1 (stereo not given)	inconclusive: 26.9 µM [inhibitor, single point]
C#CCSc1ncc(-c2ccccc2)cn1	inconclusive: 23.9 µM [inhibitor, partial curve]
Cc1csc(NC(=O)c2ccc[nH]c2=O)n1	active: 16.9 µM
COc1ccc(NC(=O)NN2CCN(C)CC2)cc1OC	inconclusive: 8.49 µM [inhibitor, partial curve, poor fit]
O=C(N/N=C/c1ccc(Br)s1)c1cccs1	active: 15.1 µM
NC(=O)c1ccccc1-c1nc(-c2ccccc2)no1	active: 23.9 µM
